In all, about 360,000 compounds went through this assay and about 16,000 (4.4%) were called active. This list was built around the results that the source calls inconclusive (neither active nor inactive); the mix of calls is not that of the screen. Calls follow the shape of the dose curve; as a rule, active = well fitted inhibition curve with a large enough effect; inconclusive = small, poorly fitted or top-dose-only effect; inactive = no such curve, though single readings can be large or run the other way. A potency beside an inconclusive call is a rough fit, not a confirmed value. More than one record can exist for a structure, and the calls need not agree.
target: Bromodomain adjacent to zinc finger domain protein 2B (Homo sapiens) (UniProt Q9UIF8); test: qHTS Assay for Inhibitors of BAZ2B; details: AlphaScreen BAZ2B-H3K14Ac peptide displacement; activity change, negative = inhibition: at 114 µM (top of the series); also: nearly all actives have a fitted effect of over 60% in size
Chain of UniProt Q9UIF8 (Q9UIF8 whole entry, looked up, the tested form may be a part): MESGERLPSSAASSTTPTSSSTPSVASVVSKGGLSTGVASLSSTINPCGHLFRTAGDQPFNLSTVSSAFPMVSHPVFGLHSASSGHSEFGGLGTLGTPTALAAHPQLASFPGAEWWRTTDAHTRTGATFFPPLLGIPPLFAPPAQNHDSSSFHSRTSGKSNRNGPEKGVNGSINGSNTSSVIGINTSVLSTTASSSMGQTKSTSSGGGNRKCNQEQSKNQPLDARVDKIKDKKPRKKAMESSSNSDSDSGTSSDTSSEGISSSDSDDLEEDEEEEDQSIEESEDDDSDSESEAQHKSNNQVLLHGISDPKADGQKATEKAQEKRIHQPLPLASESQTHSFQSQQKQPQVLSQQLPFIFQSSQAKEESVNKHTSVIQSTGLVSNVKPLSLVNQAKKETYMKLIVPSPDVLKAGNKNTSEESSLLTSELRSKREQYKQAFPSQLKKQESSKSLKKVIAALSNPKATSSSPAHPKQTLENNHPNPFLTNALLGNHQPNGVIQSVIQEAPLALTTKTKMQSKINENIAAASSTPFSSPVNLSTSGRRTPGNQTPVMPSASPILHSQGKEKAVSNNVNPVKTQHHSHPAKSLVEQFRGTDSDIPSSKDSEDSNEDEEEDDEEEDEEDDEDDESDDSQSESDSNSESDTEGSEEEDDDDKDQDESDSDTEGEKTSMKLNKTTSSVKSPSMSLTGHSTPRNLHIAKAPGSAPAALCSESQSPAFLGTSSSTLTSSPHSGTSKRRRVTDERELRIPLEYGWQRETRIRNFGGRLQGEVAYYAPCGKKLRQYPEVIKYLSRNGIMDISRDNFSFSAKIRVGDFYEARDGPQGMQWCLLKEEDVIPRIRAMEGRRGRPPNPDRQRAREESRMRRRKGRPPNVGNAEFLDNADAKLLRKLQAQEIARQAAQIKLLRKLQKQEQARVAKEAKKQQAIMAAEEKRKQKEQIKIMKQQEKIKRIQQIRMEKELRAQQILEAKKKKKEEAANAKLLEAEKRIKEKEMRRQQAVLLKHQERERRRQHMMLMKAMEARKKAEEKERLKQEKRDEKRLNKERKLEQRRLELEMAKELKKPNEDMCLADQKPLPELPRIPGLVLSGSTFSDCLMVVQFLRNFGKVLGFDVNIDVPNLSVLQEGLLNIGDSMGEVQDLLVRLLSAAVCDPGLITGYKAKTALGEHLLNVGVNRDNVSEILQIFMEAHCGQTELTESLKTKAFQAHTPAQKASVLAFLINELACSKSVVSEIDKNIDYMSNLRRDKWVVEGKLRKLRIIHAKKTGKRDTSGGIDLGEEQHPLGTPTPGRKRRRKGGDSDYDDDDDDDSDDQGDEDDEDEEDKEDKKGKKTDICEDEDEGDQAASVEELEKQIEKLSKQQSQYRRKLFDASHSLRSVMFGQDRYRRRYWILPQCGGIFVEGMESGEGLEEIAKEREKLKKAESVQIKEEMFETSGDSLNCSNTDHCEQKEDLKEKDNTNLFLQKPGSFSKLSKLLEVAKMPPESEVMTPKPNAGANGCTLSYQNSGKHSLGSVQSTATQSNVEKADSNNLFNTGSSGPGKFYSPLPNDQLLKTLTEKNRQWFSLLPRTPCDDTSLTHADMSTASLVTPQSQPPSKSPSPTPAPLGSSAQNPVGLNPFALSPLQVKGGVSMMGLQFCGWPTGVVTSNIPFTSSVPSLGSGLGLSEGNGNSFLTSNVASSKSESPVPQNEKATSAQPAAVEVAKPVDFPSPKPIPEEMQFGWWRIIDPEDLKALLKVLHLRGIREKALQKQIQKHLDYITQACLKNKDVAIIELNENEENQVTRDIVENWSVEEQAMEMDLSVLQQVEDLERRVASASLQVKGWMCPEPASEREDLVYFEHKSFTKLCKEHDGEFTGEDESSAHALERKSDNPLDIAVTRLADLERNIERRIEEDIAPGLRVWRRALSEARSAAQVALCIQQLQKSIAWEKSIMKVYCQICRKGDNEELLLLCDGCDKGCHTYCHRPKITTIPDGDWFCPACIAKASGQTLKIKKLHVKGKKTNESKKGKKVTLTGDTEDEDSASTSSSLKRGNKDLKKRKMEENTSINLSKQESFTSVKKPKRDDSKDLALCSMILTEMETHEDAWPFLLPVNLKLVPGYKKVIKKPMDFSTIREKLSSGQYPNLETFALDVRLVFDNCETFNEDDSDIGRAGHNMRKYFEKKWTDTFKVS
Procedure, shortened: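 BAZ2B (50 nM) with biotin-H3(5-23)K14Ac peptide (50 nM) in PBS pH 7.4, 0.01% Tween-20, preformed 30 min, then compound 30 min at room temperature; top concentration 110uM. AlphaScreen streptavidin donor/nickel chelate acceptor beads (10 ug/mL final), 20 min dark, signal read.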
% is scaled to controls: 0 for no effect and ±100 for the full control effect; potency is read from the fitted curve at half-maximal effect; tags tell the direction and shape of the fitted curve.

Compound | activity change, negative = inhibition | Potency
CC1CCCCN1S(=O)(=O)c1ccc(C(=O)Nc2sc3c(c2C(N)=O)CC(C)(C)NC3(C)C)cc1 (stereo unspecified) | inactive: -0.942% | 
O=C(NCc1ccco1)c1ccccc1NS(=O)(=O)c1ccc(Cl)s1 |  | inconclusive: 89.1 µM [inhibitor, single point]
Cc1cc(/C=C2/SC(=O)NC2=O)c(C)n1-c1ccc(N2CCOCC2)cc1 | inactive: -1.43% | 
O=[N+]([O-])c1ccc(CSc2ccc(S(=O)(=O)N3CCOCC3)cn2)cc1 | inactive: -26.7% | 
COc1ccccc1NS(=O)(=O)c1cccc(NC(=O)c2cc3ccccc3oc2=O)c1 |  | inconclusive: 79.4 µM [inhibitor, single point]
O=S(=O)(c1cccs1)N1CN(Cc2ccc(F)cc2)c2nc3ccccc3nc21 |  | inconclusive: 79.4 µM [inhibitor, single point]
COc1cc(C(=O)Nc2nc3ccc(S(C)(=O)=O)cc3s2)cc(OC)c1C |  | inconclusive: 89.1 µM [inhibitor, single point]
COc1ccc(N2CCN(C(=O)c3cc(-c4cc(OC)ccc4OC)nc4ccccc34)CC2)cc1 |  | active: 11.2 µM
CCOc1ccccc1C(=O)OCC(=O)Nc1ccc(OC(F)F)cc1 | inactive: 5.7% | 
CCCNC(=O)c1c[nH]c2ccc(S(=O)(=O)N(C)c3ccc(OCC)cc3)cc2c1=O | inactive: 10.9% | 
Cc1[nH]nc2c1C(c1ccc(-c3ccc(Cl)cc3)o1)C(C#N)=C(N)O2 (stereo unspecified) |  | active: 39.8 µM
Cc1ccc(-c2nc(NC(=O)CSc3cc(C)c4ccccc4n3)ns2)cc1 |  | active: 10 µM
COc1ccc(N2CCN(Cc3nc(N)nc(Nc4ccc(C)c(Cl)c4)n3)CC2)cc1 |  | active: 25.1 µM
c1ccc(C2CCC(N3CCN(c4ccccc4)CC3)CC2)cc1 (stereo unspecified) |  | inconclusive: 63.1 µM [inhibitor, partial curve]
COc1cc(Cl)c(S(=O)(=O)NCCc2c(C)[nH]c3c(C)cccc23)cc1Cl |  | active: 31.6 µM
O=C(Nc1cccc([N+](=O)[O-])c1)c1cnccn1 |  | active: 50.1 µM
CN(CC(=O)Nc1cccc(S(=O)(=O)NC2=NCCC2)c1)Cc1ccccc1Cl |  | inconclusive: 35.5 µM [inhibitor, single point]
Cc1ccc(Oc2nc(CN3CCOCC3)nc3sc4c(c23)CCC(C)C4)cc1 (stereo unspecified) |  | inconclusive: 44.7 µM [inhibitor, partial curve]
COc1cc(/C=N/N=C(N)N)ccc1OCc1ccccc1Cl | inactive: -38.1% | 
COc1ccc(CNc2ncc(-c3ccccc3)n2C)c2ccccc12 |  | active: 50.1 µM
O=C(CSc1nnc(-c2ccccn2)n1Cc1ccccc1)NC1CCCC1 |  | active: 89.1 µM
CCOC(=O)C1CCN(C(=O)CCc2nnc3ccc(NCc4ccco4)nn23)CC1 |  | inconclusive: 50.1 µM [inhibitor, partial curve]
CCCCn1nc(C(=O)Nc2cc(C(F)(F)F)ccc2N2CCOCC2)ccc1=O | inactive: -4.85% | 

Compound | activity change, negative = inhibition | Potency
CCC1(c2ccccc2)NC(=O)N(CC(=O)Nc2cc(C(F)(F)F)ccc2N2CCCC2)C1=O (stereo unspecified) |  | inconclusive: 89.1 µM [inhibitor, single point]
CC(=O)Nc1ccc(NC(=O)C2CCN(C(=O)C3CC(=O)N(c4ccc(C)cc4)C3)CC2)cc1 (stereo unspecified) | inactive: -13.9% | 
CC(=O)c1ccc(NS(=O)(=O)c2ccc3c(c2)N(C)CCO3)cc1 |  | inconclusive: 79.4 µM [inhibitor, partial curve]
COc1ccc(CC(=O)N/N=C/c2cccn2-c2ccc([N+](=O)[O-])cc2)cc1OC |  | active: 39.8 µM
CC(C)(C)c1ccc(/C=C/C(=O)c2ccc(NC3=NCCCS3)cc2)cc1 |  | inconclusive: 79.4 µM [inhibitor, single point]
COc1ccc(/C=C/C(=O)NC(=S)NN2CCCCC2c2cccnc2)cc1 (stereo unspecified) |  | inconclusive: 56.2 µM [inhibitor, partial curve]
CCOc1ccc(N)cc1OC |  | inconclusive: 70.8 µM [inhibitor, single point]
COC(=O)c1cc2c(cc1Cl)SC(=NCCCN1CCOCC1)NS2(=O)=O |  | inconclusive: 100 µM [inhibitor, single point]
CCOC(=O)C(=NCCCN(C)C)NNc1cc(C(F)(F)F)ccc1Cl | inactive: -34.3% | 
COc1cc(NC(=O)c2sc3ncn(CC(=O)N4CCCC(C)C4)c(=O)c3c2C)cc(OC)c1OC (stereo unspecified) |  | inconclusive: 89.1 µM [inhibitor, partial curve]
O=C1N/C(=N\N=C\c2cccs2)SC1Cc1cccc(Cl)c1Cl (stereo unspecified) | inactive: -5.75% | 
COC(=O)c1cccc(Cn2c(Cl)c(/C=N/Nc3ccccc3C)sc2=O)c1 |  | active: 35.5 µM
COc1ccccc1N1CCN(C(=O)c2cc(C(=O)N3CCN(c4ccccc4OC)CC3)cc([N+](=O)[O-])c2)CC1 |  | inconclusive: 39.8 µM [inhibitor, single point]
Cc1nc(N)sc1-c1nnc(SCC(=O)Nc2nccs2)n1C |  | inconclusive: 89.1 µM [inhibitor, single point]
Clc1cccc(-c2ccc(CNCCSc3nnnn3-c3ccccc3)o2)c1 |  | inconclusive: 15.8 µM [inhibitor, full curve]
COc1cccc(CNC(=O)c2ccc3c(c2)c(C)c(C)n3Cc2ccccc2)c1 |  | inconclusive: 28.2 µM [inhibitor, full curve]
COc1cc2nc(SCc3ccc(F)cc3)n(Cc3cccs3)c(=N)c2cc1OC |  | inconclusive: 100 µM [inhibitor, single point]
Cn1c(-c2cc3c(C(F)(F)F)nn(C)c3s2)n[nH]c1=S | inactive: -35% | 
COc1ccccc1-n1c(SCC(=O)c2ccc(O)cc2O)nc2cc([N+](=O)[O-])ccc21 |  | inconclusive: 44.7 µM [inhibitor, partial curve]
COc1cc(CN2CCC(C(=O)N3CCN(c4ccccc4F)CC3)CC2)ccc1O |  | active: 56.2 µM
COc1ccc(-c2csc3ncn(-c4ccccc4OC)c(=O)c23)cc1OC |  | inconclusive: 70.8 µM [inhibitor, single point]
CCC(=O)N1CCc2cc(S(=O)(=O)CCC(=O)Nc3ccc(F)c(F)c3)ccc21 |  | active: 56.2 µM
Cc1cc(-c2nc3c4c5c(sc4[nH]c(=O)n3n2)CCC5)c(C)o1 |  | active: 50.1 µM

— PubChem BioAssay AID504333 (National Center for Advancing Translational Sciences (NCATS), 2011)
